“And” between values parts separate entries of the source, which are not always exact repeats. Identical values can stand only once. In all, about 13,000 compounds were measured (“IFI”: median about 4, highest 2% from about 17 on). The list shows a part of the results.

This experiment in a line: GSK_TCMDC: Inhibition Frequency Index (IFI). The number of non-kinase HTS assays where a compound showed > 50 % inhibition, expressed as a percentage of the number of such assays in which the compound was tested (-0 is zero). Type of experiment: functional.
`CC[C@H]1CN2CC[C@H]1C[C@H]2[C@H](O)c1cc(-c2cccc(F)c2)nc2ccc(OC)cc12` returned an IFI of 5.44%. On to `O=C(c1cc(C(F)(F)F)cc(C(F)(F)F)c1)N1CCC(CCN2CCC3(CC2)C(=O)NCN3c2ccccc2)CC1Cc1ccc(Cl)c(Cl)c1` (stereo unspecified), for which the IFI was 20%. Turning to `COc1ccc(CCNCc2ccc3nc(N)cc(C)c3c2)cc1`, the IFI is 2.16%.

Regarding `CCCCCC(C)C(C)c1cc(O)c2c3c(c(=O)oc2c1)CN(Cc1ccccc1)CC3` (stereo unspecified), the IFI is 0.74%. `O=C(/C=C/c1ccc(O)cc1)NC1CCC(CN2CCC(c3c[nH]c4ccccc34)CC2)CC1` (stereo unspecified) showed an IFI of 5.56%. Take `COc1ccc(N(c2nc(-c3cc(Cl)ccc3Cl)cs2)C2CCNCC2)cc1`: the IFI was 23.1%. Regarding `O=c1c2ccccc2nc(/C=C/c2ccc([N+](=O)[O-])cc2)n1-c1ccccn1`, the IFI is -0%. To `O=C(/C=C/c1ccc(F)c(C(F)(F)F)c1)N1CCC(CN2CCC(c3c[nH]c4ccccc34)CC2)CC1` belongs 2.16%; to `O=C(/C=C/c1cc(F)c(F)cc1F)N1CCC(CN2CCC(c3c[nH]c4ccccc34)CC2)CC1`, 3.57%; to `CCC1CN2CCc3cc(OC)c(OC)cc3C2CC1CC1NCCc2cc(OC)c(OC)cc21` (stereo unspecified), 8.96%. `CCN1CCC2(c3cccc(OC)c3)Cc3nc4ccccc4c(-c4ccccc4)c3CC2C1` (stereo unspecified) had an IFI of 3.62%.

`COC(=O)c1ccc(CC(C)NCC(O)c2cccc(SC(F)(F)F)c2)cc1` (stereo unspecified) displayed an IFI of 5%. Turning to `CCC1(C)N=C(N)N=C(N)N1c1ccc(Cl)cc1` (stereo unspecified), the IFI was -0%.

Consider `O=P(O)(O)Oc1c(Br)cc(Br)cc1-c1cc(Br)cc(Br)c1O`, for which the IFI worked out at 6.73%.

With `CCOc1ccc(Br)cc1/C=C/C(=O)Nc1ccc2c(c1)C1CCC2N1C` (stereo unspecified), the IFI was found to be 10.2%.

For `COc1ccc(CC(C)NCC(O)c2cccc(C(F)(F)F)c2)cc1F` (stereo unspecified), the IFI was found to be 4.38%. `CN(C)c1cccc(NC(=O)N[C@H]2N=C(c3ccccc3)c3ccccc3N(CC(=O)N3CCCC3)C2=O)c1` showed an IFI of 3.2%. Consider `OC1(c2ccc(Cl)c(C(F)(F)F)c2)CCN(CCOC2c3ccccc3CSc3ccc(Cl)cc32)CC1` (stereo unspecified), for which the IFI came out at 8.22%. `COCCNCc1cccc(-c2ccc(CN(C(=O)Nc3ccccc3)C3CCN(Cc4ccccc4)CC3)cc2)c1` yielded an IFI of 6.43%. Take `CC(C)/C(=C(/F)CN1C(=O)C(NC(=O)c2cc3ccccc3[nH]2)C(=O)N(c2ccccc2)c2ccccc21)c1ccccc1` (stereo unspecified): the IFI is -0%. As for `Cc1csc(NC2=NCCN2)n1`, the IFI was 0.72%. The compound `Cc1ccccc1C1=CCN(CCCN2c3ccccc3Sc3ccc(Cl)cc32)CC1` had an IFI of 4.86%. The result for `Cc1ccc(CC(C)NCC(O)c2cccc(C(F)(F)F)c2)cc1F` (stereo unspecified) reads 7.3%. In the case of `CC(=O)N(Cc1cccc(-c2cccc(CNCCc3ccccc3)c2)c1)C1CCN(Cc2ccccc2)CC1`, the IFI was 5.22%. To `CC1=CC(=O)[C@@H](O)[C@]2(C)[C@H]3[C@@]4(O)OC[C@@]35[C@@H](C[C@@H]12)OC(=O)C[C@H]5[C@@H](C)[C@H]4O` belongs 7.19%; to `c1ccc2c(NCCCCCCCCCNc3c4ccccc4nc4ccccc34)c3ccccc3nc2c1`, 9.77%; to `COc1ccc(O)c(CN2CCN(c3cc(C)ccc3C)CC2)c1`, 0.92%. As to `COC(=O)/C=C/C(=O)N[C@@H]1CC[C@@]2(O)[C@H]3Cc4ccc(O)c5c4[C@@]2(CCN3CC2CC2)[C@H]1O5`, the IFI is 0.76%. `COC(=O)c1ccc(CC(C)NCC(O)c2cccc(C(F)(F)F)c2)cc1C` (stereo unspecified) showed an IFI of 0.74%. To `CC(=O)C1(c2ccccc2)CCN(CCC2(c3ccc(Cl)c(Cl)c3)CN(C(=O)C3CCCC3)CCO2)CC1` (stereo unspecified) belongs 6.04%; to `CNCCCCCCc1ccc(CC(C)NCC(O)c2cccc(Cl)c2)cc1` (stereo unspecified), 7.97%. Turning to `CC[C@H]1CN2CC[C@@H]1C[C@H]2[C@H](O)c1cc(N2CCOCC2)nc2ccc(OC)cc12`, the IFI is -0%. `COc1ccccc1CC(C)NCC(O)c1cccc(Cl)c1` (stereo unspecified): the IFI was 3.68%.

Compound `CCN1CC=C(c2c[nH]c3ccccc23)CC1` returned an IFI of 0.91%. `c1ccc(C(OCCC2CCN(Cc3cccc4cccnc34)CC2)c2ccccc2)cc1` showed an IFI of 3.1%. Compound `COC(=O)C(C)(C)c1ccc(CC(C)NCC(O)c2cccc(C(F)(F)F)c2)cc1` (stereo unspecified) showed an IFI of 8.82%. On to `CC(=O)C1(c2ccccc2)CCN(CCC2(c3ccc(Cl)c(Cl)c3)CN(C(=O)c3cccc(Cl)c3)CCO2)CC1` (stereo unspecified), for which the IFI was found to be 4.83%. Take `COc1ccc(CN2CCN(CCOC(c3ccccc3)c3ccc(Cl)cc3)CC2)c(O)c1` (stereo unspecified): the IFI came out at 3.52%. The result for `Cc1cccc2c(C3CCN(CC4CCC(NC(=O)/C=C/c5ccc(Cl)c(Cl)c5)CC4)CC3)c[nH]c12` (stereo unspecified) reads 9.86%; that for `CCCCCCCc1cc(O)c2c3c(c(=O)oc2c1)CN(C)CC3`, -0%; that for `COc1ccc2[nH]cc(C3CCN(Cc4ccc(NC(=O)c5ccc(-c6ccccc6)cc5)cc4)CC3)c2c1`, 5.63%.

In turn, `Cc1cc(NC(=O)[C@@H](Nc2ccc(C#N)c3ccccc23)C2CCCCC2)ccc1F` had an IFI of 3.85%.

Compound `O=S(=O)(NC1CCC(CN2CCC(c3c[nH]c4ccccc34)CC2)CC1)c1ccc(Cl)c(Cl)c1` (stereo unspecified) showed an IFI of 4.23%. `COCC(=O)N(Cc1ccccc1-c1ccc(CNCCc2ccccc2)cc1)C1CCN(Cc2ccccc2)CC1` registered an IFI of 8.21%. The result for `OC(CNC12CC3CC(CC(C3)C1)C2)c1cccc(C(F)(F)F)c1` (stereo unspecified) reads -0%; that for `CN1CC=C(c2c[nH]c3ccc(OC(=O)c4ccccc4)cc23)C1`, -0%.

In the case of `O=C(CCc1ccc(Cl)cc1Cl)NC1CCC(CN2CCC(c3c[nH]c4ccccc34)CC2)CC1` (stereo unspecified), the IFI was 5.38% and 4.58%. To `Cc1ccc(CC(C)NCC(O)c2cccc(Br)c2)cc1` (stereo unspecified) belongs 6.52%; to `O=C(NC1CCC(CN2CCC(c3c[nH]c4ccccc34)CC2)CC1)c1cc2ccccc2o1` (stereo unspecified), 4.96%. Compound `O=C(NC1CCC(CN2CCC(c3c[nH]c4ccccc34)CC2)CC1)C1(O)c2ccccc2-c2ccccc21` (stereo unspecified) gave an IFI of 3.01%. As to `CC[C@H]1CN2CC[C@H]1C[C@@H]2[C@H](O)c1ccnc2ccc(O)cc12`, the IFI is 2.36%. With `CSc1nccc(-c2ccc(S(=O)(=O)NC3CCC(CN4CCC(c5c[nH]c6ccccc56)CC4)CC3)s2)n1` (stereo unspecified), the IFI was 9.93% and 9.09%.

`Cc1c(C)c2c(c(C)c1O)CC[C@](C)(C(=O)NC1CCC(CN3CCC(c4c[nH]c5ccccc45)CC3)CC1)O2` (stereo partly specified): the IFI is 9.92% and 6.87%. The compound `CC(C)C[C@H](Nc1ccc(C#N)c2ccccc12)C(=O)N[C@@H]1CCCc2ccccc21` displayed an IFI of 2.91%. `Cc1cc(-c2ncc[nH]2)ccc1-c1ccc(C(=O)N2CCc3cc4c(cc32)C2(CCN(C)CC2)CO4)cc1`: the IFI is 2.96%. The compound `CC(C)CNCc1cccc(-c2cccc(CN(C(=O)Nc3ccccc3)C3CCN(Cc4ccccc4)CC3)c2)c1` showed an IFI of 9.15%. With `CCCCCCC(C)(C)c1cc(O)c2c3c(c(=O)oc2c1)CCN(Cc1ccccc1)C3`, the IFI is 2.22%.

For `O=C(CCc1ccco1)NC1CCN(CC2(c3ccc(Cl)cc3)CCC2)CC1`, the IFI amounted to 8.11%. Turning to `CN(C)CCc1c[nH]c2ccc(C(=O)Nc3ccc(-c4ccncc4)cc3)cc12`, the IFI is 5.19%. As for `OC(CNC1CCCCC1)c1ccc(Cl)c(Cl)c1` (stereo unspecified), the IFI was -0%. To `Cc1[nH]c2cc(F)ccc2c1C1=CCN(CCCCC2(C)C(=O)Nc3ccccc32)CC1` (stereo unspecified) belongs 2.19%; to `N#Cc1ccc(N(CC(=O)NCCc2ccc(F)cc2)CC2CC2)c2ccccc12`, 5.67%; to `Cc1ccc(CC(C)NCC(O)c2cccc(C#N)c2)cc1` (stereo unspecified), 5.26%. Take `COc1ccc(CC(C)NCC(O)c2ccc(Cl)c(Cl)c2)cc1` (stereo unspecified): the IFI worked out at 5.11%. Consider `CCN(CC)CCN1C(=O)C(O)(c2ccccc2Cl)c2c1cc(C(N)=O)cc2C(F)(F)F` (stereo unspecified), for which the IFI was found to be 0.71%.

With `O=C1NCN(c2ccc(O)cc2)C12CCN(CCCC(c1ccc(F)cc1)c1ccc(F)cc1)CC2`, the IFI is 4.32%. To `CN1CC=C(c2c[nH]c3ccc(Sc4ccccc4)cc23)CC1` belongs 3.7%; to `O=C(Nc1cc(C(F)(F)F)cc(C(F)(F)F)c1)NC1CCC(CN2CCC(c3c[nH]c4ccccc34)CC2)CC1` (stereo unspecified), 2.86% and 9.09%. The result for `CCCN(CC(=O)NCCc1ccccc1)c1ccc(C#N)c2ccccc12` reads 6.29%; that for `CC[C@H]1CN2CC[C@@H]1C[C@H]2[C@H](O)c1cc(-c2cccnc2)nc2ccc(OC)cc12`, 2.05%. To `CS(=O)(=O)Nc1ccc2[nH]cc(C3CCN(CC4CCC(NC(=O)/C=C/c5ccccc5Cl)CC4)CC3)c2c1` (stereo unspecified) belongs 2.13%; to `COCC(=O)N(Cc1cccc(-c2ccc(CNCCc3ccccc3)cc2)c1)C1CCN(Cc2ccccc2)CC1`, 7.59%.

For `CC(Cc1ccc(C(C)(C)C)cc1)NCC(O)c1ccccc1` (stereo unspecified), the IFI was found to be 5.22%. The compound `Cn1c(C2CC3CCC(C2)N3CC2CCC(NC(=O)/C=C/c3ccc(Cl)c(Cl)c3)CC2)nc2ccccc21` (stereo unspecified) returned an IFI of 6.12%.

Regarding `O=C(Nc1ccccc1Cl)NC1CCC(CN2CCC(c3c[nH]c4ccccc34)CC2)CC1` (stereo unspecified), the IFI was 3.65% and 4.9%. To `CNCCCN(C)C(=O)Oc1c(Br)c(C)nc(C)c1-c1ccc(Oc2ccc(OC(F)(F)F)cc2)cc1` belongs 7.41%. Compound `CC[C@H]1CN2CC[C@@H]1C[C@H]2[C@H](O)c1cc(N2CCC(O)(c3ccccc3)CC2)nc2ccc(OC)cc12` yielded an IFI of 3.79%. For `CC[C@H]1CN2CC[C@H]1C[C@H]2[C@H](O)c1cc(N2CCC3CCCCC3C2)nc2ccc(OC)cc12` (stereo partly specified), the IFI worked out at 14.2%. `OC(CNC1CCCCCCC1)c1ccc(Cl)c(Cl)c1` (stereo unspecified) came in with an IFI of 2.14%. For `COc1ccc(-c2ccccc2)cc1NC(=S)NC1CCC(CN2CCC(c3c[nH]c4ccccc34)CC2)CC1` (stereo unspecified), the IFI was 8.7% and 9.93%.

In turn, `O=C(NC1CCN(CCc2c[nH]c3ccc(F)cc23)CC1)c1ncc(-c2ccccc2)[nH]1` came in with an IFI of 0.72%. For the compound `Cn1cc(CN2CCC(CCOC(c3ccccc3)c3ccccc3)CC2)cn1`, the IFI stood at 3.88%. The result for `CC[C@H]1CN2CC[C@@H]1C[C@H]2[C@H](O)c1ccnc2ccc(Cl)cc12` reads -0%; that for `O=[N+]([O-])c1ccc(Oc2c(Cl)cc(S(=O)(=O)N3CCC(CN4CCC(c5c[nH]c6ccccc56)CC4)CC3)cc2Cl)c(Cl)c1`, 2.82%. Compound `CC[C@H]1CN2CC[C@H]1C[C@H]2[C@H](OC(=O)c1ccccc1)c1cc(C#N)nc2ccc(OC)cc12` yielded an IFI of 1.49%. Turning to `CCC1=C[C@@H]2CN(C1)Cc1c([nH]c3ccccc13)[C@@](C(=O)OC)(c1cc3c(cc1OC)N(C)[C@H]1[C@@](O)(C(=O)OC)[C@H](O)[C@]4(CC)C=CCN5CC[C@]31[C@@H]54)C2`, the IFI turned out to be 5.07%.
